Each structure is given as a SMILES string. Inconclusive results are not listed. Calls come from the whole dose curve; as a rule, active = well fitted cell-killing curve with a large enough effect; inconclusive = small, poorly fitted or top-dose-only effect, or effect the other way; inactive = no such curve, though single readings can be large or run the other way. Certain results were filed several times, with different values. They are shown here; other results are not. There may be further records. The values listed for one entry are repeated measurements across runs, samples, wells, individuals or studies.

In PubChem BioAssay (NCATS) one finds max response data, which are given here for 1 compound.

The nature of this test: Cell Viability qHTS for small molecule stabilizers of the endoplasmic reticulum resident proteome (AID 1508629).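 Note: human SH-SY5Y neuroblastoma cells carrying the GLuc-SERCaMP reporter; compound exposure about 46 h in total before the viability read.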 Particulars: cell viability counter-screen, 100 nM thapsigargin for final 4 h. The text has this:
Assay Provider: Brandon K. Harvey Ph.D.
National Institute on Drug Abuse, National Institutes of Health, Baltimore, MD
Endoplasmic reticulum (ER) dysregulation is associated with human pathologies including neurodegenerative, cardiovascular, muscular, and diabetic conditions. Maintenance of ER calcium is critical for functions of the ER and its depletion can lead to loss of ER resident proteins, in a process termed exodosis. Therapeutic compounds capable of attenuating the redistribution of ER proteins under pathological conditions may slow or stop disease progression. To identify such compounds, we performed a quantitative high-throughput screen (qHTS) using the SERCaMP assay, which monitors secretion of ER resident proteins triggered by calcium depletion.
SERCaMP was initially developed as a reporter of ER calcium homeostasis using a Gaussia luciferase with a modified signal peptide and carboxy-terminus (GLuc-SERCaMP), modifications that confer secretion of the reporter in response to ER calcium depletion (Henderson et al., 2014). […]
9; Detection; Luminescence; ViewLux imaging system […]
7; Cell viability was measured using the CellTiter-Glo Luminescent Cell Viability Assay (Promega). […]
9; Luminescence was measured using a ViewLux CCD imaging system (Perkin Elmer) equipped with clear filters.
A general note: qHTS replaces the single test concentration by a dilution series.
% is set by controls: 0 for no effect and ±100 for the full control effect.

In the case of `CC(C)(c1ccc(O)cc1)c1ccc(O)cc1`, the max response result was “inactive: 22.5, 33.7, 22.1, 11.8, 46.1% [separate samples]”.
